From the supplement of paper PMC11125491
± gives the standard deviation of the averaged measurements. Growth of baker's yeast expressing single-residue variants of Pneumocystis jirovecii dihydrofolate reductase in 8.8 or 44 µM methotrexate (about 75% and 90% inhibition of the wild type). Selection coefficient per generation; 0 = like wild type, above 0 = less sensitive, below 0 = more sensitive or loss of function. No active / inactive call per row; the paper calls resistant above 0.220 (8.8 µM) or 0.243 (44 µM) together with a significance test. At 44 µM about 15% of codons end with one read or none, so the lowest values are floors (replicate rank correlation 0.74; 0.94 at 8.8 µM).

B1: UniProt A0EPZ9; numbered along this chain (parent)
chain: MDWQKSLTLIVALTLSRGIGLKNDLPWKLKSDMMFFSRVTSGLLVTRSTGQMNVVLMGRKTWESLPAHSRPLKNRINVVISRQEVLDLGGGAYHARSLDDALALLSQIYDSTSKIQLNRVFVIGGGELCKAAMEHSRLNRIIATVIHNEVDCDVFFPIDFRSSQSCLPWRKQDHSVLEAWVGSKVPQGKINENGFIYEFEMWIRDI

Variants of: B1
Experiment: selection coefficient against synonymous wild-type codons (log2 per generation); higher = faster growth than wild type
Settings: with Saccharomyces cerevisiae carrying the variant on a plasmid
Protocol: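 Pooled growth of yeast carrying single-residue variants of P. jirovecii dihydrofolate reductase (own DFR1 gene intact), two passages at 30 °C, three cultures, sequenced before and after. Codons with under 15 starting reads are left out; codons of one change are averaged.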

Row | Variant | selection coefficient against synonymous wild-type codons (log2) (methotrexate 8.8 µM) | selection coefficient against synonymous wild-type codons (log2) (methotrexate 44 µM)
1 | A95S | -0.423 ± 0.13 | -0.181 ± 0.12
2 | A95F | -0.634 ± 0.1 | -0.201 ± 0.086
3 | A95D | -0.742 ± 0.054 | -0.351 ± 0.084
4 | A95Y | -0.748 ± 0.12 | -0.332 ± 0.039
5 | A95K | -0.578 ± 0.11 | -0.189 ± 0.038
6 | A95T | -0.426 ± 0.12 | -0.209 ± 0.17
7 | A95W | -0.834 ± 0.11 | -0.373 ± 0.036
8 | A95I | -0.726 ± 0.057 | -0.223 ± 0.019
9 | A95E | -0.637 ± 0.07 | -0.29 ± 0.042
10 | A95V | -0.315 ± 0.091 | -0.234 ± 0.18
11 | A95C | -0.191 ± 0.038 | -0.229 ± 0.053
12 | A95H | -0.727 ± 0.019 | -0.224 ± 0.058
13 | A95N | -0.707 ± 0.11 | -0.341 ± 0.038
14 | A95P | -0.608 ± 0.16 | -0.19 ± 0.057
15 | H94Q | -0.0901 ± 0.049 | -0.0879 ± 0.043
16 | H94F | -0.523 ± 0.05 | -0.239 ± 0.055
17 | H94N | -0.621 ± 0.15 | -0.275 ± 0.047
18 | H94Y | -0.445 ± 0.046 | -0.161 ± 0.033
19 | H94R | -0.516 ± 0.15 | -0.188 ± 0.097
20 | H94L | -0.571 ± 0.13 | -0.315 ± 0.048

Row | Variant | selection coefficient against synonymous wild-type codons (log2) (methotrexate 8.8 µM) | selection coefficient against synonymous wild-type codons (log2) (methotrexate 44 µM)
21 | H94C | -0.426 ± 0.071 | -0.256 ± 0.11
22 | H94G | -0.614 ± 0.17 | -0.266 ± 0.049
23 | H94S | -0.366 ± 0.074 | -0.312 ± 0.051
24 | H94K | -0.585 ± 0.13 | -0.212 ± 0.071
25 | H94W | -0.0158 ± 0.041 | 0.000318 ± 0.023
26 | H94D | -0.71 ± 0.016 | -0.206 ± 0.06
27 | H94I | -0.63 ± 0.19 | -0.257 ± 0.033
28 | H94V | -0.629 ± 0.13 | -0.231 ± 0.11
29 | H94P | -0.669 ± 0.07 | -0.201 ± 0.086
30 | H94A | -0.483 ± 0.098 | -0.235 ± 0.059
31 | H94T | -0.454 ± 0.12 | -0.229 ± 0.09
32 | H94E | -0.432 ± 0.21 | -0.296 ± 0.2
33 | H94M | -0.695 ± 0.13 | -0.236 ± 0.021
34 | A92T | -0.203 ± 0.025 | -0.0847 ± 0.091
35 | A92S | -0.358 ± 0.055 | -0.256 ± 0.068
36 | A92Q | -0.505 ± 0.014 | -0.246 ± 0.06
37 | A92W | -0.536 ± 0.13 | -0.327 ± 0.032
38 | A92Y | -0.546 ± 0.19 | -0.188 ± 0.031
39 | A92R | -0.792 ± 0.047 | -0.296 ± 0.14
40 | A92V | -0.203 ± 0.086 | -0.201 ± 0.12

Row | Variant | selection coefficient against synonymous wild-type codons (log2) (methotrexate 8.8 µM) | selection coefficient against synonymous wild-type codons (log2) (methotrexate 44 µM)
41 | R96L | -0.508 ± 0.045 | -0.098 ± 0.39
42 | R96S | -0.253 ± 0.13 | -0.153 ± 0.061
43 | R96E | -0.327 ± 0.047 | -0.257 ± 0.04
44 | R96W | -0.526 ± 0.081 | -0.276 ± 0.055
45 | R96I | -0.438 ± 0.099 | -0.391 ± 0.043
46 | R96N | -0.251 ± 0.075 | -0.188 ± 0.12
47 | R96C | -0.372 ± 0.0048 | -0.361 ± 0.054
48 | R96M | -0.61 ± 0.034 | -0.246 ± 0.16
49 | R96D | -0.452 ± 0.072 | -0.268 ± 0.058
50 | R96T | -0.172 ± 0.071 | -0.156 ± 0.091
51 | R96Q | -0.157 ± 0.056 | -0.146 ± 0.11
52 | R96G | -0.356 ± 0.041 | -0.347 ± 0.047
53 | R96V | -0.406 ± 0.11 | -0.309 ± 0.075
54 | R96A | -0.2 ± 0.056 | -0.178 ± 0.082
55 | R96F | -0.424 ± 0.068 | -0.336 ± 0.069
56 | R96P | -0.461 ± 0.17 | -0.176 ± 0.048
57 | R96K | 0.0316 ± 0.048 | 0.0774 ± 0.09
58 | R96Y | -0.367 ± 0.034 | -0.235 ± 0.018
